Laboratory results from the supplement of paper PMC4967469.
The IC50 comes from the fitted curve, where viability falls to half of the control; where the fit passes the top or lowest dose, that dose stands as a limit. The AUC spans the tested range (256-fold, ending at the top dose) of the same fit; the more sensitive the line, the further below 1. For part of these data: Where the top dose is marked as inferred, it is not printed in the source and was worked back from the curve model.

Key:
Assay in all cases: Viability of human cancer cell lines after 72 h of drug (GDSC screen)
[1] = compound: CC[C@H](CO)Nc1nc(NCc2ccccc2)c2ncn(C(C)C)c2n1 [Roscovitine]; details: top dose 16 µM; top dose inferred
Description: (§1)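 Human cancer cell lines in 384-well plates, medium with 10% serum, drug for 72 h over a 256-fold dose range (nine 2-fold or five 4-fold steps up to the top dose). Adherent lines were fixed and stained with the nucleic acid dye Syto60, suspension lines read with resazurin; signal relative to control wells, capped at 0 and 100%. One two-parameter sigmoid per drug and line, fitted in a mixed model over all curves with the slope shared within a line.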

[2] = compound: CO[C@@H]1[C@H](N(C)C(=O)c2ccccc2)C[C@H]2O[C@]1(C)n1c3ccccc3c3c4c(c5c6ccccc6n2c5c31)C(=O)NC4 [Midostaurin]; details: top dose 0.512 µM; top dose inferred
Description: as §1

[3] = compound: CO[C@@]12[C@H](COC(N)=O)C3=C(C(=O)C(C)=C(N)C3=O)N1C[C@@H]1N[C@@H]12 [Mitomycin C]; details: top dose 16 µM
Description: as §1

[4] = compound: COc1cc(Nc2c(C#N)cnc3cc(OCCCN4CCN(C)CC4)c(OC)cc23)c(Cl)cc1Cl [Bosutinib]; details: top dose 2 µM
Description: as §1

[5] = compound: Cc1ccc(C(=O)Nc2cccc(C(F)(F)F)c2)cc1Nc1nc(-c2cccnc2)nc2c1cnn2C [NVP-BHG712]; details: top dose 10.24 µM; top dose inferred
Description: as §1

[6] = compound: O=C(O)CNC(=O)c1c(O)c2ccccc2n(Cc2ccccc2)c1=O [IOX2]; details: top dose 0.1 µM; top dose inferred
Description: as §1

Cell Line | AUC [1] | IC50 [1] [nM] | AUC [2] | IC50 [2] [nM] | AUC [3] | IC50 [3] [nM] | AUC [4] | IC50 [4] [nM] | AUC [5] | IC50 [5] [nM] | AUC [6] | IC50 [6] [nM]
SK-MM-2 (myeloma, suspension) | 0.985 | > 16000 | 0.921 | > 512 | 0.645 | 2570 | 0.987 | > 2000 | 0.863 | 9470 | 0.98 | > 100
RF-48 (stomach, adherent) | 0.923 | > 16000 | 0.927 | > 512 | 0.307 | 267 | 0.949 | > 2000 | 0.71 | 2720 | 0.984 | > 100
EW-11 (Ewing sarcoma, adherent) | 0.972 | > 16000 | 0.95 | > 512 | 0.389 | 453 | 0.888 | > 2000 | 0.955 | > 10200 | 0.977 | > 100
ALL-SIL (T-cell leukaemia, suspension) | 0.984 | > 16000 | 0.812 | 228 | 0.11 | 71.8 | 0.687 | 383 | 0.057 | < 40 | 0.987 | > 100
NCI-H1304 (small cell lung carcinoma, suspension) | 0.905 | > 16000 | 0.939 | > 512 | 0.369 | 422 | 0.988 | > 2000 | 0.975 | > 10200 | 0.984 | > 100
HDLM-2 (Hodgkin lymphoma, suspension) | 0.98 | > 16000 | 0.959 | > 512 | 0.554 | 1400 | 0.852 | 1510 | 0.986 | > 10200 | 0.981 | > 100
8-MG-BA (glioma, adherent) | 0.963 | > 16000 | 0.767 | 179 | 0.183 | 121 | 0.889 | > 2000 | 0.952 | > 10200 | 0.978 | > 100
CESS (acute myeloid leukaemia, suspension) | 0.902 | 15700 | 0.911 | > 512 | 0.239 | 202 | 0.991 | > 2000 | 0.418 | 396 | 0.99 | > 100
CP66-MEL (melanoma, adherent) | 0.975 | > 16000 | 0.982 | > 512 | 0.4 | 512 | 0.979 | > 2000 | 0.866 | > 10200 | 0.984 | > 100
NCI-H1436 (small cell lung carcinoma, suspension) | 0.982 | > 16000 | 0.941 | > 512 | 0.6 | 1960 | 0.985 | > 2000 | 0.921 | > 10200 | 0.981 | > 100
HA7-RCC (kidney, adherent) | 0.938 | > 16000 | 0.853 | 468 | 0.133 | < 62.5 | 0.947 | > 2000 | 0.822 | 6770 | 0.983 | > 100
SK-N-DZ (neuroblastoma, adherent) | 0.973 | > 16000 | 0.955 | > 512 | 0.635 | 2340 | 0.892 | > 2000 | 0.955 | > 10200 | 0.986 | > 100
REH (B-cell leukaemia, suspension) | 0.982 | > 16000 | 0.882 | 503 | 0.098 | < 62.5 | 0.94 | > 2000 | 0.948 | > 10200 | 0.986 | > 100
SUP-HD1 (Hodgkin lymphoma, suspension) | 0.797 | 7160 | 0.941 | > 512 | 0.366 | 436 | 0.965 | > 2000 | 0.782 | 4080 | 0.987 | > 100
Raji (Burkitt lymphoma, suspension) | 0.881 | 14900 | 0.988 | > 512 | 0.548 | 1340 | 0.986 | > 2000 | 0.92 | > 10200 | 0.982 | > 100
NCI-H1417 (small cell lung carcinoma, suspension) | 0.982 | > 16000 | 0.973 | > 512 | 0.316 | 275 | 0.887 | > 2000 | 0.907 | > 10200 | 0.979 | > 100
NB12 (neuroblastoma, adherent) | 0.973 | > 16000 | 0.923 | > 512 | 0.517 | 1130 | 0.976 | > 2000 | 0.916 | > 10200 | 0.977 | > 100
SU-DHL-6 (B-cell lymphoma, suspension) | 0.92 | 13200 | 0.885 | 314 | 0.468 | 837 | 0.914 | 1570 | 0.667 | 1630 | 0.995 | > 100
HCC2157 (breast, suspension) | 0.972 | > 16000 | 0.903 | > 512 | 0.46 | 774 | 0.971 | > 2000 | 0.987 | > 10200 | 0.985 | > 100
P30-OHK (lymphoblastic leukaemia, suspension) | 0.991 | > 16000 | 0.838 | 266 | 0.067 | < 62.5 | 0.815 | 874 | 0.49 | 603 | 0.989 | > 100
ROS-50 (B-cell leukaemia, suspension) | 0.913 | > 16000 | 0.964 | > 512 | 0.646 | 2840 | 0.972 | > 2000 | 0.793 | 6220 | 0.983 | > 100

Cell Line | AUC [1] | IC50 [1] [nM] | AUC [2] | IC50 [2] [nM] | AUC [3] | IC50 [3] [nM] | AUC [4] | IC50 [4] [nM] | AUC [5] | IC50 [5] [nM] | AUC [6] | IC50 [6] [nM]
NB10 (neuroblastoma, adherent) | 0.925 | > 16000 | 0.976 | > 512 | 0.198 | 131 | 0.988 | > 2000 | 0.823 | 5870 | 0.987 | > 100
MZ2-MEL (melanoma, adherent) | 0.972 | > 16000 | 0.941 | > 512 | 0.374 | 423 | 0.75 | 756 | 0.667 | 2040 | 0.946 | > 100
NB14 (neuroblastoma, adherent) | 0.987 | > 16000 | 0.929 | > 512 | 0.409 | 572 | 0.96 | > 2000 | 0.887 | > 10200 | 0.985 | > 100
CTB-1 (B-cell lymphoma, suspension) | 0.958 | > 16000 | 0.938 | > 512 | 0.35 | 328 | 0.758 | 935 | 0.621 | 1550 | 0.976 | > 100
CHP-126 (neuroblastoma, suspension) | 0.984 | > 16000 | 0.963 | > 512 | 0.17 | 95.6 | 0.987 | > 2000 | 0.965 | > 10200 | 0.986 | > 100
EW-24 (Ewing sarcoma, semi-adherent) | 0.99 | > 16000 | 0.984 | > 512 | 0.47 | 838 | 0.943 | > 2000 | 0.884 | 8710 | 0.992 | > 100
LS-411N (large intestine, adherent) | 0.921 | > 16000 | 0.923 | > 512 | 0.346 | 339 | 0.969 | > 2000 | 0.815 | 7270 | 0.978 | > 100
Mo-T (hairy cell leukaemia, suspension) | 0.983 | > 16000 | 0.987 | > 512 | 0.755 | 5530 | 0.902 | > 2000 | 0.973 | > 10200 | 0.984 | > 100
EW-18 (Ewing sarcoma, suspension) | 0.984 | > 16000 | 0.848 | 422 | 0.578 | 1660 | 0.938 | > 2000 | 0.864 | 10000 | 0.979 | > 100
RC-K8 (B-cell lymphoma, suspension) | 0.972 | > 16000 | 0.993 | > 512 | 0.578 | 1580 | 0.993 | > 2000 | 0.919 | > 10200 | 0.969 | > 100
MMAC-SF (melanoma, adherent) | 0.972 | > 16000 | 0.958 | > 512 | 0.497 | 980 | 0.953 | > 2000 | 0.986 | > 10200 | 0.986 | > 100
D-392MG (glioma, adherent) | 0.945 | > 16000 | 0.77 | 269 | 0.725 | 5580 | 0.948 | > 2000 | 0.855 | > 10200 | 0.952 | > 100
NU-DUL-1 (B-cell lymphoma, suspension) | 0.961 | > 16000 | 0.944 | > 512 | 0.079 | < 62.5 | 0.901 | 1690 | 0.428 | 423 | 0.99 | > 100
TE-8 (oesophagus, adherent) | 0.909 | > 16000 | 0.921 | > 512 | 0.131 | < 62.5 | 0.957 | > 2000 | 0.921 | > 10200 | 0.972 | > 100
NCI-H2081 (small cell lung carcinoma, suspension) | 0.977 | > 16000 | 0.927 | > 512 | 0.469 | 819 | 0.962 | > 2000 | 0.989 | > 10200 | 0.988 | > 100
GDM-1 (acute myeloid leukaemia, suspension) | 0.906 | > 16000 | 0.749 | 160 | 0.359 | 416 | 0.974 | > 2000 | 0.175 | 70.4 | 0.986 | > 100
LAN-6 (neuroblastoma, adherent) | 0.96 | > 16000 | 0.985 | > 512 | 0.368 | 403 | 0.985 | > 2000 | 0.937 | > 10200 | 0.983 | > 100
HT (B-cell lymphoma, suspension) | 0.892 | > 16000 | 0.974 | > 512 | 0.57 | 1520 | 0.984 | > 2000 | 0.912 | > 10200 | 0.989 | > 100
CA46 (Burkitt lymphoma, suspension) | 0.934 | > 16000 | 0.877 | > 512 | 0.497 | 983 | 0.967 | > 2000 | 0.669 | 1960 | 0.982 | > 100
NCI-H1694 (small cell lung carcinoma, suspension) | 0.962 | > 16000 | 0.969 | > 512 | 0.369 | 437 | 0.989 | > 2000 | 0.985 | > 10200 | 0.966 | > 100
SCH (stomach, adherent) | 0.975 | > 16000 | 0.988 | > 512 | 0.894 | > 16000 | 0.877 | > 2000 | 0.988 | > 10200 | 0.987 | > 100
